# Measured values taken from PubChem BioAssay AID1347417 (National Center for Advancing Translational Sciences (NCATS), 2020).
# The campaign covered roughly 120,000 compounds. About 5,300 (4.4%) were called active. The inconclusive results got no clear call from the source; some entries with a clear call stand among them for comparison. The call rests on the fitted dose curve; in most records, active means well fitted inhibition curve with a large enough effect; inconclusive means small, poorly fitted or top-dose-only effect; inactive means no such curve, though single readings can be large or run the other way. Potencies of inconclusive entries are doubtful fits and often do not repeat.
# Assay: qHTS Primary assay for Inhibitors of Plasmodium falciparum Dd2 growth in vitro; further: nearly all actives have a fitted effect of over 65% in size
# Conditions: P. falciparum Dd2 growth, SYBR Green, 72 h; series mostly up to 28.9 µM
# Method in brief: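 Readout: SYBR Green fluorescence, 485 nm excitation, 535 nm emission, after ~16 h lysis at 37C. Before that, Dd2-infected red cells (2.5% hematocrit) grew 72 h with compound, 29 uM top final concentration.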
# Potency means the concentration at half of the fitted maximal effect; tags describe the fitted curve by direction and shape.
row,Compound,Potency
1,O=C([C@@H]1C[C@H](F)CN1C(=O)c1ccccc1F)N1CCCCC1,inactive
2,CN1CCC(OCCCn2ccnc2-c2ccccc2C(=O)O)CC1,inactive
3,CCn1cc(S(=O)(=O)N2CCC(OCCOC)CC2)cn1,inactive
4,CCC1CCCCN1CCCNC(=O)c1sc2nc(C)cc(C)c2c1-n1cccc1 (configuration not stated),"inconclusive: 8.91 µM [inhibitor, single point]"
5,COc1ccccc1NC(=O)c1cc2c(n(-c3ccc(C)cc3)c1=O)CC(C)(C)CC2=O,"inconclusive: 10 µM [inhibitor, single point]"
6,Cc1cccc(CNC(=O)c2c(C)noc2-c2ccc(OC(F)(F)F)cc2)c1,inactive
7,Cc1nn(-c2cccc(Br)c2)c(C)c1[C@@H]1C=C[C@@H](NS(C)(=O)=O)C1,inactive
8,O=C(c1ccc2c(c1)N(Cc1cccc(Cl)c1)C(=O)c1ccccc1S2(=O)=O)N1CCN(Cc2ccccc2)CC1,"inconclusive: 11.2 µM [inhibitor, single point]"
9,O=C(c1nccc2ccccc12)N1CCC2(CC1)CC(Cc1nc(C3CC3)no1)CCO2 (configuration not stated),"inconclusive: 7.94 µM [inhibitor, partial curve, poor fit]"
10,CC(C)c1noc(-c2cccn3c(CNC(=O)c4cc(F)ccc4F)nnc23)n1,"inconclusive: 5.01 µM [inhibitor, partial curve, poor fit]"
11,COc1nc2nc(CCc3ccccc3)n(C)c2cc1-c1ccncc1,inactive
12,CCc1ccccc1NC(=O)Cn1c(N2CCN(c3ccccc3)CC2)nc(C)cc1=O,"inconclusive: 10 µM [inhibitor, single point]"
13,CN(Cc1cccnc1)C(=O)c1ccc(N2CC3CC(C2)[C@H]2CCCC(=O)N2C3)nc1 (some centres not stated),inactive
14,O=C(CCc1ccccc1)N1CCCCCC1c1nnc(-c2ccccc2)o1 (configuration not stated),"inconclusive: 2.51 µM [inhibitor, partial curve, poor fit]"
15,COc1cc(-c2cc(-c3ccccc3)nc3c(C)noc23)ccn1,"inconclusive: 31.6 µM [inhibitor, single point]"
16,CCc1ccc(CNC(=O)c2ccc(-n3c(C)cc4c3CCC(C)C4)cc2)cc1 (configuration not stated),active: 12.6 µM
17,COc1cc(Br)c(C2CC(=O)Nc3cc4c(cc32)OCCO4)cc1OC (configuration not stated),"inconclusive: 1.12 µM [inhibitor, full curve, poor fit]"
18,COc1ccc(CC(=O)Nc2ccc([C@H]3OCC(=O)N(Cc4ccc(F)cc4)[C@@H]3CO)cc2)cc1,"inconclusive: 15.8 µM [inhibitor, single point]"
19,CN(C(=O)CCc1ccsc1)C1CCCN(CCc2ccccc2)C1 (configuration not stated),"inconclusive: 8.91 µM [inhibitor, single point]"
20,Cc1cccc(CC(=O)N2CC(C(=O)NC3CCCCC3)C3(CCOCC3)C2)c1 (configuration not stated),"inconclusive: 14.1 µM [inhibitor, single point]"
21,CC(C)C[C@@H]1N[C@H](C(=O)NCCN(C)C)Cc2c[nH]c3cccc1c23,"inconclusive: 2.82 µM [inhibitor, single point]"

row,Compound,Potency
1,Cc1noc(C)c1CC(=O)N1CCCCCCNC(=O)[C@@H]2CCCC[C@@H]21,"inconclusive: 3.98 µM [inhibitor, partial curve, poor fit]"
2,CN(Cc1csc(-c2ccccc2)n1)C(=O)c1ccc(-n2cnnn2)cc1,inactive
3,CC(C)CN(Cc1cccnc1)C1CN(C(=O)CC2CCCCC2)C1,"inconclusive: 17.8 µM [inhibitor, single point]"
4,CCOCCOC1CCN(C(=O)c2ccccc2OC)CC1,inactive
5,COc1ccc(N2Cc3c(NC4CC4)ncnc3N(C)CC2=O)cc1,inactive
6,O=C(CCc1c[nH]c2ccccc12)N1CCC2(CC1)CC(Cc1nc(C3CC3)no1)CCO2 (configuration not stated),"inconclusive: 12.6 µM [inhibitor, single point]"
7,COc1ccc(NC(=O)Cn2c(=O)n(-c3ccc(C)c(C)c3)c(=O)c3c4c(sc32)CCCCC4)cc1Cl,"inconclusive: 17.8 µM [inhibitor, single point]"
8,O=S(=O)(c1ccc2c(c1)OCCO2)N1CC[C@@H]2COCCN(Cc3cccnc3)[C@@H]2C1,"inconclusive: 2.82 µM [inhibitor, partial curve, poor fit]"
9,N#Cc1cccc(NC(=O)N[C@H]2CO[C@H]3[C@@H]2OC[C@@H]3Nc2nccc(-c3cccs3)n2)c1,"inconclusive: 10 µM [inhibitor, partial curve, poor fit]"
10,Cn1ccnc1CN1C(=O)CO[C@H]2CN(C(=O)c3cccnc3)C[C@H]21,inactive
11,Cc1ccc(CN2CCCC23Cc2ccccc2CNC3=O)cc1 (configuration not stated),active: 10 µM
12,COc1ccc(N2CCN(C(CNC(=O)c3cccc(OC)c3)c3cccnc3)CC2)cc1 (configuration not stated),"inconclusive: 12.6 µM [inhibitor, single point]"
13,O=C(c1ccc2ncccc2c1)N1CCC2(CC1)Nc1ccccc1NC2=O,inactive
14,CCc1ccc(CNc2ncnc3onc(-c4ccc(Cl)cc4)c23)cc1,"inconclusive: 0.562 µM [inhibitor, full curve, poor fit]"
15,CN(C)CC1(O)CCC2(CCN(C(=O)CCc3nc(-c4ccccc4)no3)CC2)CC1,"inconclusive: 2 µM [inhibitor, partial curve, poor fit]"
16,COc1cc2nc(Nc3ccc(C)c(C)c3)nc(N)c2cc1OC,active: 0.1 µM
17,Cc1ccc(CCC(=O)N2CCC(CO)(CN3CCCC3)CC2)cc1,"inconclusive: 3.98 µM [inhibitor, single point]"
18,Cc1ccc(C(=O)N2CCC3(CC2)N=C(c2ccc(Br)cc2)NO3)cc1,"inconclusive: 11.2 µM [inhibitor, single point]"
19,CCOC(=O)c1ccc(NC(=O)Cn2cc(C(=O)c3cccs3)c3ccccc32)cc1,inactive
20,COc1ccccc1NC(=O)C1=C(C)Nc2c(C(=O)Nc3cccc(C)c3)cnn2C1c1ccccc1C (configuration not stated),"inconclusive: 8.91 µM [inhibitor, partial curve]"
21,COc1cc(OC)cc(C(=O)Nc2cccc(-c3nnc4n3CCCC4)c2)c1,"inconclusive: 2.82 µM [inhibitor, single point]"
